# Test results from PubChem BioAssay AID488969 (Vanderbilt High Throughput Screening Facility, 2010).
# Values joined by “and” are separate entries in the source; they are usually repeats but may differ in a detail not shown here. Equal entries are not always repeated. Over roughly 110,000 compounds, “z-score” has its median near -0.1; the highest 2% begin near 2. The list shows a part of the results.
# Molecular target: Metabotropic glutamate receptor 8 (Rattus norvegicus) (UniProt P70579)
# Assay: mGluR8 Gi/Go-coupled signaling modulation – cell-based, rat, thallium flux, HTS, primary screen (AID 488969)
# Conditions: HEK293 rat mGluR8, GIRK (G protein-gated inwardly rectifying potassium channel) thallium flux, FluoZin2; at 10 µM; stronger effect = higher value; submaximal glutamate (EC20) added with thallium
# Chain of UniProt P70579 (P70579 whole entry, looked up): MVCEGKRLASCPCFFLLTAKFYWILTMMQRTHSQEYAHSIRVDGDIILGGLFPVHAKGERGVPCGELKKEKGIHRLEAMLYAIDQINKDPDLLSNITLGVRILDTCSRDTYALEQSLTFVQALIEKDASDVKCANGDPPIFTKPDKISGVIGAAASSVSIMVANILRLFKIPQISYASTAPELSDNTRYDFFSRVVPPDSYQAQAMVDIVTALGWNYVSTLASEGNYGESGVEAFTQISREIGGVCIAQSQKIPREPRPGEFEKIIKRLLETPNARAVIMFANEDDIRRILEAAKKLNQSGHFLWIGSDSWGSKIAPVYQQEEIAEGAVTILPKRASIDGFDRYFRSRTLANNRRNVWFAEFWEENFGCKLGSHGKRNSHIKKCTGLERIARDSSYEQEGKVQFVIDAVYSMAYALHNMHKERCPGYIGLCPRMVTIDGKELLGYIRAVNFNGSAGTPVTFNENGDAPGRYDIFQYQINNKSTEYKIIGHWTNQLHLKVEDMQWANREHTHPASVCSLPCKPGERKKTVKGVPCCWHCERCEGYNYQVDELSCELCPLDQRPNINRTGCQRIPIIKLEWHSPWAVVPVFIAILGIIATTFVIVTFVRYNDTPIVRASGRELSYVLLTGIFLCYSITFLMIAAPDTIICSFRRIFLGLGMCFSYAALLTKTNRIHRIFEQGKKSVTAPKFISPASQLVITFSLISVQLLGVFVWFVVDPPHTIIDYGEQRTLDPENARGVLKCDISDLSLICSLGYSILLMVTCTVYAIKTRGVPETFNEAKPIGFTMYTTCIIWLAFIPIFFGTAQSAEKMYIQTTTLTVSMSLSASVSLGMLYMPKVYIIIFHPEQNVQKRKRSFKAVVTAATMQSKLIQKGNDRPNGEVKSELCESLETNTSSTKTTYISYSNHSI
row,Compound,z-score
1,N#C/C(=C\c1ccc(Sc2nc3ccccc3[nH]2)o1)c1ccccc1,-0.593
2,CC(C)Oc1ccc(CNC(=S)N/N=C/c2cccnc2)cc1,-0.416
3,COC(=O)c1cccc(-n2c(C)cc(C=O)c2C)c1C,-0.132
4,Cc1ccc(C(=O)Nc2cccc(C(=O)N3CCN(C)CC3)c2)cc1,-0.156
5,Oc1ccc(CN2CCc3ccccc3C2)c2cccnc12,0.165
6,Cc1nc(SCCC(C)C)c([N+](=O)[O-])[nH]1,0.0363
7,CN1CCN(c2ccccc2NC(=O)c2cc3ccccc3o2)CC1,-0.408
8,C=CCNc1sc(C(=O)c2ccc(Br)s2)c(N)c1C#N,-1.5
9,O=C(CCC(=O)N(CC(=O)NC1CCCC1)Cc1ccc2c(c1)OCO2)Nc1ccccn1,0.0849
10,O=C(Cc1cccs1)Nc1cccc(C(=O)Nc2ccco2)c1,-0.242
11,Cc1ccc(C)c(S(=O)(=O)NCCOC(=O)Nc2sc(=S)n(C)c2C)c1,-0.171
12,O=C(Cc1cc(=O)[nH][nH]1)N/N=C/C=C/c1ccccc1,0.0229 and -0.224
13,CCOC(=O)c1c(NC(=O)CCN2C(=O)c3ccccc3C2=O)sc(C(=O)OC(C)C)c1C,-0.193
14,CCOC(=O)C1=C(C)Nc2ccc(C)cc2S1,-0.2
15,Cc1nn(-c2nc3ccccc3s2)c(N)c1-c1ccccc1,-0.0629
16,Nc1nc(SCC(=O)NCCCO)nc2sc3c(c12)CCC3,1.08

row,Compound,z-score
1,COc1ccc(-c2nnc(N(C)C(=O)C3CCOC3)s2)cc1 (configuration not stated),-0.205
2,CC(=O)Nc1c(O)nc(SCC(=O)Nc2c(C)cccc2C)[nH]c1=O,0.093
3,COc1ccc(NC(=O)c2csc3c2CCCC3)cc1,-1.23
4,CCCCN(C)c1ccc([N+](=O)[O-])cc1,-0.278
5,N#Cc1cc(-c2ccc(Cl)cc2)cnc1Sc1ccc(F)cc1,0.135
6,O=C(C1CCCN(S(=O)(=O)c2ccccc2)C1)N1CCCc2ccccc21 (configuration not stated),-0.095
7,COc1cc(C)ccc1OCCCOc1cc(C)ccc1Cl,-0.174
8,COc1cc(OC)nc(NC(=O)CN2CCN(c3ccc(F)cc3)CC2)n1,0.00189
9,Cc1ccc(-n2c(SCC(=O)N3CC(=O)Nc4ccccc43)nc3ccccc3c2=O)cc1C,-0.183
10,COc1ccc(-c2nnc(NC(=O)c3ccc(S(=O)(=O)N4COCC4(C)C)cc3)o2)cc1,1.22
11,CN(C)c1ccc(C(=O)NCC2CCCO2)cc1 (configuration not stated),0.549
12,COc1ccc(NC(=S)N2CCC(N(C)CCN3CCOCC3)CC2)cc1,0.316
13,Cc1cc(C(=O)OCC(=O)Nc2nnc(C(C)C)s2)c2ccccc2n1,-0.717
14,O=C1C2C3CCC(C3)C2C(=O)N1Cc1ccccc1 (configuration not stated),-0.615
15,CCOC(=O)c1cc(=O)n(-c2ccc(Cl)cc2C)[nH]1,-0.311
16,O=C1CS/C(=C\[N+](=O)[O-])N1c1ccc(OC(F)(F)F)cc1,-0.124
